From the supplement of paper PMC3334620
The full ranking holds about 33,000 sequences; the median of “E-score (-0.5 to 0.5)” is about -0.021, and the highest 2% start at about 0.32. This is one part of the list.

target: T1, Zap1 (UniProt P47043); experiment: PBM E-score (8-mer binding enrichment) (E-score (-0.5 to 0.5)); higher = stronger / more preferred TF binding; most listed sequences are background and not binding sites; conditions: protein concentration: 200 nM; construct: GST-full length
T1 sequence: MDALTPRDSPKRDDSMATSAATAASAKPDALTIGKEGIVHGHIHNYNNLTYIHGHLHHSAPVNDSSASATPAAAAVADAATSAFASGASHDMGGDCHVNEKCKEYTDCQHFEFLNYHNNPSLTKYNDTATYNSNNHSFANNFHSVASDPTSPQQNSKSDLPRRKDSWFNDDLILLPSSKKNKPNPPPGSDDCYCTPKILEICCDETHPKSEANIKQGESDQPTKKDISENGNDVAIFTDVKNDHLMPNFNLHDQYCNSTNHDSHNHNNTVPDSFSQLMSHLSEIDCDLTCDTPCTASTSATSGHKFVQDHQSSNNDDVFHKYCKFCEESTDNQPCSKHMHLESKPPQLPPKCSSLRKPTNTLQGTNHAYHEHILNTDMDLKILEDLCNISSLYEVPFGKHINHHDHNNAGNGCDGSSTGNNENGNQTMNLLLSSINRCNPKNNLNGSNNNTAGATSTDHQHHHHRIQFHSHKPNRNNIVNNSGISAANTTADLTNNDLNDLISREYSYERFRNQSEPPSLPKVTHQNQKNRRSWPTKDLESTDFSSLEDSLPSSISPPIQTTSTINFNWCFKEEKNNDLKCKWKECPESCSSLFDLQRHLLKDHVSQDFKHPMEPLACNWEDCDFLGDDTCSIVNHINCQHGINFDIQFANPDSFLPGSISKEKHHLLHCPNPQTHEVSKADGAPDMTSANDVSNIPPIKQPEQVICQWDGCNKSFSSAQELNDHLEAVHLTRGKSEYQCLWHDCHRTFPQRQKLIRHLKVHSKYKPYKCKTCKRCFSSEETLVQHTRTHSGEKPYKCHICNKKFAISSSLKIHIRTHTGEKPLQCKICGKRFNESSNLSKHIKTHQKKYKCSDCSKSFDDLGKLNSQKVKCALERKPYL
Method: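 Universal 'all 10-mer' protein binding microarrays (Agilent AMADID 015681) probed with GST-tagged S. cerevisiae TFs (full-length or DBD) made by in vitro transcription/translation (PURExpress), about 100-200 nM. Bound TF was detected with fluorescent anti-GST. Each ungapped 8-mer (which stands for itself and its reverse complement) is scored by the PBM enrichment score (E-score), a modified Wilcoxon-Mann-Whitney statistic from -0.5 to +0.5, computed with the Universal PBM Analysis Suite. Scale: above 0.35 generally sequence-specific binding.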

Sequence	PBM E-score
AGCGCAGC	-0.41
CTTACAGA	0.0139
CAATGCAG	-0.0775
AAATACAT	-0.0948
ACAACTGC	-0.0344
AGGGACCT	0.281
ATGATCTG	0.0147
CGACAAGC	-0.158
CAACATCC	-0.218
CGCTGTGC	-0.0239
CCGGGAGC	-0.233
CCAAAGTA	0.027
AGGCTGAG	-0.0733
ACATCAAT	0.106
CAAACCAC	0.0159
GAAGTTAA	-0.0394
GACCAAGC	0.039
AATAACAC	0.107
CCACCAAG	-0.123
ACATCAAC	0.105
AAACCCAG	0.228
GGACAAAC	0.137
AACATCCA	0.0169
ATCAATGC	-0.232
GAAAAGGA	-0.0181

Sequence	PBM E-score
ATAGCCAG	-0.0475
CCTGATCG	-0.172
GAGCTAAA	-0.159
TCCTGCCA	-0.26
ATTTGTGA	0.123
AAATTGAT	0.102
ATGGAAAA	0.146
ACCTCCAA	0.157
ACGGGTCA	0.223
AGCCTGCG	-0.282
GAGTGGTA	0.11
GTCCCCAC	0.0691
ATGTCAAT	-0.166
AATCGAAC	0.0379
ATTTGGGA	0.0783
ACGTGCCT	-0.341
ATCTTCGG	0.00595
GTTACAAC	0.291
AAACTAAT	0.236
ATCCCATC	-0.247
CTTGGGTA	0.196
ATCGGCGG	-0.103
GACTAGAA	-0.115
CGGACCCC	-0.026
ACATCAGC	-0.133

Sequence	PBM E-score
TATAGGAA	0.088
GCCACTCA	-0.0824
GACTCACC	-0.172
CTTCGAAC	0.164
GGACTGCA	-0.171
GTATCAGA	-0.0545
CAGTTGTC	-0.00938
AGGATGGA	-0.0464
AGTACCCC	0.296
ATCGACAA	0.147
ATTGCAAT	-0.00114
ACGTTCAA	-0.181
GGATAACA	-0.0812
AGCATGTC	-0.0983
ATATTAGG	0.174
GATTCGGC	-0.192
ATCAAAGA	-0.0279
GCCTATCC	-0.194
CCCTAGAG	0.281
GTAGCTCA	-0.143
TAACGACA	-0.00629
CAGAGAGA	-0.21
GAAGGAGA	-0.122
ATAACTGG	-0.0359
AAATCCAA	0.108

Sequence	PBM E-score
CAAACCTG	0.0641
GGAGAACA	-0.0701
CTAGCAAG	-0.192
ACAATCCG	0.0979
GGTAAAAC	0.113
CTGAGCGA	-0.0845
AGGGCGCA	-0.202
GAGGCCTA	-0.1
ATGGAGGA	-0.26
CAGGGTCA	0.417
CACGTATC	-0.218
CAAGGTGG	0.131
CACAACGA	0.0452
CGCTGCCC	-0.162
CCTTGTGA	0.193
CGGTTTCA	0.03
AGCTAAGG	-0.17
ACCACCAC	0.294
AGAAATTC	-0.0398
AAATCGCA	0.0208
CAGTGCCG	-0.0624
GCAGATTA	-0.0315
AATTATTC	0.133
CGGGGTAG	0.205
AAAGCTTT	-0.06

Sequence	PBM E-score
ATAGTCTC	0.103
ACAGCCCG	-0.172
AAAACAGT	0.0314
ACTCAGAC	-0.0323
AGTACGGA	-0.0532
AGTCTGAA	-0.206
ACGCCTTG	-0.13
CTGATGGA	-0.254
AAAAGGCC	0.115
AGAGAGAA	-0.157
CAATAAAA	0.149
CCGGCTGC	-0.041
AATCTCTG	-0.1
AGAGGAAA	0.12
CTGTAGAA	0.0266
GAGTCAGA	-0.157
AACTCCGA	-0.0253
ACTAACAG	0.155
AGTGTTAA	0.107
CCAATTAA	0.205
AAAAACGG	0.196
CCGTTATA	0.103
ACACAGAG	-0.144
AGGACAAT	-0.00527
ATGCATTA	0.17

Sequence	PBM E-score
GATAGCAA	-0.0255
ACTGAGCC	-0.0274
ACAACGCG	-0.0352
GAGTGTAA	-0.139
GAGCTCGC	-0.0688
AGGGAACC	0.159
CGATCCTA	-0.0994
CCAGTATC	-0.0933
AAGGAAAA	0.0425
AAGGCGGC	-0.0887
AGGGCAAT	-0.156
ACATAGTA	0.0554
AACTTAAT	0.165
AACATATG	-0.117
CCAATCAA	0.0678
AGGGTAAA	0.235
CTATGCGA	-0.102
CCTTGAGA	0.225
ACCAGATC	-0.0162
ATAATCAT	0.255
CATGACCA	0.284
CCCGTGCG	-0.00953
GGCTAGCA	-0.222
ATCGAACG	-0.183
AAATATGA	0.153

Sequence	PBM E-score
ATGACGCC	-0.139
ACCTACCT	0.167
ACATCTGC	-0.225
GGTGTCGA	0.0564
CTGAGGAC	-0.143
GCGCAGTA	-0.104
TTGTTAAA	-0.04
AGAACAGG	-0.0908
CATAATCC	0.00118
CTTGCCCC	-0.232
GAATGGGA	-0.0392
ATATCTTC	0.0902
ACTACGTC	-0.142
GATCGTCC	0.0556
CACGGTTC	-0.13
CCGAATTA	0.142
AAGCACCC	0.0716
AAGGTGAG	-0.12
AAGCCTCT	-0.3
AAGCTGCA	0.00272
CAAATTGA	-0.0375
TACGAACA	0.151
